Data from article PMC10465699, “Interaction patterns of methoprene-tolerant and germ cell-expressed Drosophila JH receptors suggest significant differences in their functioning” (Frontiers in Molecular Biosciences, 2023).
Results are given in words; binding and its absence hold for the method and conditions named. For part of these data: In cells and extracts the contact can be indirect. Some results given as binding are weak or reduced against the parent protein; the word gives no strength. For part of these data: Tags and fused reporters may be left off the sequences shown. One block for each molecule: values may come before it.

Protein sequences, listed by entry. Tags and fused reporters are not part of them.
UniProt P63104: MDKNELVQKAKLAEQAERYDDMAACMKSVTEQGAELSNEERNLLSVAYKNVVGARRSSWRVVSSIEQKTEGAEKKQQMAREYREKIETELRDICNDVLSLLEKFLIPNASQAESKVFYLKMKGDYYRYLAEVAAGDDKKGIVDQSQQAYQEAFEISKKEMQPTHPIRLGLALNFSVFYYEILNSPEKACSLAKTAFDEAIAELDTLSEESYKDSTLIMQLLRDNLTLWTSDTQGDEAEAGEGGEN

Experiments:
[1] = target: T1, Methoprene-tolerant C-terminus (MetC, 509-716 aa) (D. melanogaster) (UniProt Q9VYW2); experiment: NMR titration; 15N-HSQC of 15N-MetC without and with an equimolar concentration of 14-3-3; 20 mM Bis-Tris pH 6.5, 150 mM NaCl, 5 mM bME; 18 C; both purified
T1 sequence: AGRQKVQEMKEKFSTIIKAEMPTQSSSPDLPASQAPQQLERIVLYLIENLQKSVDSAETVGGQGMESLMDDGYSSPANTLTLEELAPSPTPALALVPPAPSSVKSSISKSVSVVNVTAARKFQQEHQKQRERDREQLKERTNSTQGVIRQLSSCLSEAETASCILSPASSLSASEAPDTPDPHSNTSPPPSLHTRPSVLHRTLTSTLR

[2] = target: T2, YFP-GceC-FLAG (D. melanogaster) (UniProt Q9VXW7); experiment: co-IP; COS-7 cells co-transfected with a YFP-/FLAG-tagged protein and CFP-14-3-3; lysis buffer with phosphatase inhibitors; lysate on ANTI-FLAG M2 Affinity Gel, elution with FLAG peptide, Western blot with anti-GFP or anti-14-3-3; no JH
T2 sequence: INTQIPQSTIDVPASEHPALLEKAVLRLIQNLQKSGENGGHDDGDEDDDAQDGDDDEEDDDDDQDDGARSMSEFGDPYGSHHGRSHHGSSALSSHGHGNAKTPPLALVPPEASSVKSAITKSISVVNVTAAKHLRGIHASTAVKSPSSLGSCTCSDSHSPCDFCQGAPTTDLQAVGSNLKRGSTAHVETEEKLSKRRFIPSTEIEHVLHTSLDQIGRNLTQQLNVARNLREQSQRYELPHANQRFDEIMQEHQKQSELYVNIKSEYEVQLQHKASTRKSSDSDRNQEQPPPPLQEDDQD

[3] = target: T3, YFP-MetC-FLAG (D. melanogaster) (UniProt Q9VYW2); experiment: as above
T3 sequence: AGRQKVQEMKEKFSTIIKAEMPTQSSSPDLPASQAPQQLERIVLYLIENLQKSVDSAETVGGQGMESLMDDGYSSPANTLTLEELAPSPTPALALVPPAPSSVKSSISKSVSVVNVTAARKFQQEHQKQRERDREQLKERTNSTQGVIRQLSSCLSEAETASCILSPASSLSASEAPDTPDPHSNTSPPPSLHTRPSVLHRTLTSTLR

[4] = target: T3, YFP-MetC-FLAG (D. melanogaster); experiment: co-IP; COS-7 cells co-transfected with a YFP-/FLAG-tagged protein and CFP-Ftz-F1 LBD; lysate on ANTI-FLAG M2 Affinity Gel, elution with FLAG peptide, Western blot with anti-GFP; no JH
[5] = target: T4, Fushi tarazu factor-1 ligand-binding domain (Ftz-F1 LBD, 786-1027 aa) (D. melanogaster) (UniProt P33244); experiment: NMR titration; 15N-HSQC of 15N Ftz-F1 LBD with unlabelled peptide, equimolar, double equimolar and up to the solubility limit (approximately 3 mM Met^PEP, 2 mM Gce^PEP); 20 mM sodium phosphate pH 6.8, 50 mM NaCl, 1 mM TCEP, 0.5 mM EDTA; 29 C; both purified
T4 sequence: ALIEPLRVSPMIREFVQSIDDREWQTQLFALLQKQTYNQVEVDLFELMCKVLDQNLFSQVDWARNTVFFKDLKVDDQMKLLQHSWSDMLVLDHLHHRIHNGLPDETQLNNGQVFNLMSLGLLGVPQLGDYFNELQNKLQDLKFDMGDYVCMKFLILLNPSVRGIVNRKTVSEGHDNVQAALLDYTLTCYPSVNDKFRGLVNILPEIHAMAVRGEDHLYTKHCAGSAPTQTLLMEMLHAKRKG

Molecule: 14-3-3 human isoform zeta, full length (from UniProt P63104 1-245)
binding [1]: no binding (tested: equimolar concentration of 14-3-3)

binding [2]: binds
binding [3]: no binding
Molecule: CFP-14-3-3 (human isoform zeta) (from UniProt P63104 1-245)

binding [4]: binds
B1: Fushi tarazu factor-1 ligand-binding domain (Ftz-F1 LBD, 786-1027 aa) (domain or fragment, D. melanogaster, UniProt P33244 786-1027, looked up)
chain: ALIEPLRVSPMIREFVQSIDDREWQTQLFALLQKQTYNQVEVDLFELMCKVLDQNLFSQVDWARNTVFFKDLKVDDQMKLLQHSWSDMLVLDHLHHRIHNGLPDETQLNNGQVFNLMSLGLLGVPQLGDYFNELQNKLQDLKFDMGDYVCMKFLILLNPSVRGIVNRKTVSEGHDNVQAALLDYTLTCYPSVNDKFRGLVNILPEIHAMAVRGEDHLYTKHCAGSAPTQTLLMEMLHAKRKG
notes: 15N- or 13C,15N-labelled where it was the observed protein in NMR, unlabelled otherwise; also called LBD Ftz-F1; source: E. coli BL21(DE3), purified (Ni-NTA, thrombin digestion, SEC); not shown: His6, N-terminal, cleaved

binding [5]: binds weakly
B2: Met^PEP, 19-residue peptide of the novel NR-box of MetC (peptide)
peptide: LERIVLYLIENLQKSVDSA
notes: 19-residue peptide representing the novel NR-box in the C-terminus of Met, D. melanogaster, UniProt Q9VYW2; also called MetC^PEP; source: synthetic peptide (PSL GmbH, Heidelberg)

binding [5]: binds weakly
Molecule: LEKAVLRLIQNLQKSGENG [Gce^PEP, 19-residue peptide of the novel NR-box of GceC]
